{"source": "the supplement of paper PMC10338343", "note": "± gives the standard deviation. The entries are a selection whose mix differs from that of the whole data set.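 Also: 1 nM active piRISC with 0.1 nM target library at 33 °C single turnover.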"}
{"test_system": "MIWI (PIWIL1) piRISC loaded with L1MC piRNA (30 nt)", "assay": "pre-steady-state target cleavage rate (min^-1); MIWI and MILI are mouse PIWI proteins and EfPiwi is from a freshwater sponge; tags in brackets are library labels; higher = faster piRNA-guided slicing of the target", "details": "guide: L1MC piRNA 5'p-UAACUAAAUACUAUGCAAGCUGUAGGUCCU; auxiliary factor: 500 nM mouse GTSF1", "how_it_was_run": "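In HEPES–potassium acetate buffer at 33 °C, […] transcribed, DNA-blocked target RNA library was mixed with 1 nM active affinity-purified piRISC carrying one synthetic guide, with or without 500 nM GTSF1 partner protein, for 0–8 or 0–960 min. Uncleaved targets were sequenced and normalised to depth and to weakly complementary targets; three trials were pooled and k3 was capped at 0.0001 min^-1. The pre-steady-state cleavage rate followed from a burst-and-steady-state fit.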"}
{"sequence": "UCCACCUACAGCUUGCUUAGUAUUUACAAA", "pre-steady-state target cleavage rate": "0.233 ± 0.036"}
{"sequence": "UGGACCUACAGCUUCCAUAGUAUAUAGUUA", "pre-steady-state target cleavage rate": "0.00443 ± 0.0027"}
{"sequence": "UCCUCCUACAGCUAGCAUAGUAUUUAGAAA", "pre-steady-state target cleavage rate": "0.312 ± 0.041"}
{"sequence": "UGGACCUACAGCUACGAUAGUAUUUAGUUA", "pre-steady-state target cleavage rate": "0.126 ± 0.018"}
{"sequence": "UCCUGGUACAGCUUGCAUAGAUUUUAGAAA", "pre-steady-state target cleavage rate": "0.00753 ± 0.0052"}
{"sequence": "UCCUGGAUGUCGUUGCAUAGUUUUUAGAUA", "pre-steady-state target cleavage rate": "< 0.0001"}
{"sequence": "AGGACCUACAGCUUGCAUAGUAAAAAGUAA", "pre-steady-state target cleavage rate": "0.39 ± 0.08"}
{"sequence": "UCCACCUACAGGUUCCAUAGUAUUUAGUUA", "pre-steady-state target cleavage rate": "0.0655 ± 0.022"}
{"sequence": "UCCUGGAUGUCGAUGCACAGUAUUUAGUUA", "pre-steady-state target cleavage rate": "0.016 ± 0.0041"}
{"sequence": "UCCUGCUACAGCUUGCAAUAGUAUUUAGUUA", "pre-steady-state target cleavage rate": "0.0619 ± 0.014"}
{"sequence": "AGGACCUACAGCUUGCAUAGUAAAAUCAAA", "pre-steady-state target cleavage rate": "0.312 ± 0.075"}
{"sequence": "UCCUGGUACACCUUGCAUAGUAUUUACAAA", "pre-steady-state target cleavage rate": "0.0813 ± 0.023"}
{"sequence": "UGGACCUACAGCUUGGUUAGUAUUUUCAAA", "pre-steady-state target cleavage rate": "0.00506 ± 0.0032"}
{"sequence": "UGGACCUACAGCUUGCAUAGUAAAAAGUAA", "pre-steady-state target cleavage rate": "0.142 ± 0.028"}
{"sequence": "UCGACCUACAGGAAGCAUAGUAUUUACAAA", "pre-steady-state target cleavage rate": "0.17 ± 0.034"}
{"sequence": "UCCUCCUACAGCUUGCAUUCUAUUUAGAAA", "pre-steady-state target cleavage rate": "0.044 ± 0.015"}
{"sequence": "UCCUCCUACAGCUUGGUAAGUAUUUAGUUA", "pre-steady-state target cleavage rate": "0.0733 ± 0.013"}
{"sequence": "UCCUGGAUGUCGAACGAUAGUAUUUAAGUUA", "pre-steady-state target cleavage rate": "< 0.0001"}
{"sequence": "UCCUGGAUCAGCUUCCUUAGUAUUUAGUUA", "pre-steady-state target cleavage rate": "0.0311 ± 0.007"}
{"sequence": "UCCUCCUACAGCUUGCAUAGUUAAUAGUAA", "pre-steady-state target cleavage rate": "0.0859 ± 0.025"}
{"sequence": "UGGACCUACAGCUUGGAUAGUAUUUUCAAA", "pre-steady-state target cleavage rate": "0.0103 ± 0.0033"}
{"sequence": "UCCUGGAUGUCGAACGUUUGUAUAUAGUUA", "pre-steady-state target cleavage rate": "< 0.0001"}
{"sequence": "AGGACCUACAGCUUGCUAUGUAUUUACAAA", "pre-steady-state target cleavage rate": "0.0117 ± 0.0059"}
{"sequence": "UCCUCCUACAGCUUGCAUAGUAUAAAGAAA", "pre-steady-state target cleavage rate": "0.249 ± 0.049"}
{"sequence": "UCCUGCUACAGCUUGCAUACUAUUUUCAAA", "pre-steady-state target cleavage rate": "0.118 ± 0.026"}
{"sequence": "UGGACCUACAGCUUGCAUAGUAUAUAGAAA", "pre-steady-state target cleavage rate": "0.268 ± 0.046"}
{"sequence": "UCCUGCUACAGCUUGCAAUGUAUUUUCAAA", "pre-steady-state target cleavage rate": "0.0162 ± 0.0062"}
{"sequence": "UCCACCUACAGCUUGCAUAGUAUUUAUUA", "pre-steady-state target cleavage rate": "0.263 ± 0.041"}
{"sequence": "UCCUGGAUGUCCUUGCUUAGUAUUUACUUA", "pre-steady-state target cleavage rate": "0.0076 ± 0.004"}
{"sequence": "UCCUGCUACACGAUGCAUAGUAUUUAGAAA", "pre-steady-state target cleavage rate": "0.106 ± 0.024"}
{"sequence": "UGGACCUACAGCUUGCAUAGUAUAUACAAA", "pre-steady-state target cleavage rate": "0.177 ± 0.042"}
{"sequence": "AGGACCUACACGAUGCAUAGUAUUUUCAAA", "pre-steady-state target cleavage rate": "0.244 ± 0.042"}
{"sequence": "UCCUGCUACAGCUACCAUAGUAUUUAGUAA", "pre-steady-state target cleavage rate": "0.189 ± 0.034"}
{"sequence": "UCCUGCUACAGCUUGCCAUAGUAUUUAGUUA", "pre-steady-state target cleavage rate": "0.12 ± 0.021"}
